According to patent US20180221313A1, “USE OF HYDROXYCARBAMIDE FOR PREVENTING RETINAL NONPERFUSION” (priority 2015, published 2018):

What was measured:
CRVO patients = conditions: cited from earlier work
[1] = tested on: sickle-cell disease patients; conditions: cited from earlier work
mouse L1210 leukemia = conditions: in vivo; cited from earlier work
[2] = tested on: central retinal vein occlusion (CRVO) patient; assay: Clinical study: ophthalmological follow-up (ETDRS visual acuity, OCT, fluorescein angiography, angio-OCT, fundus) of a CRVO patient treated orally; conditions: for average macular volume (OCT): 6.12 mm^3 at D-1; for average central retinal thickness (OCT): 316 μm at D-1; for area of the central avascular zone (CAZ) by OCT-angiography: 0.12 mm^2 at D-1
[3] = human, in vivo
Experimental: At D15 (W2), D30 (W4), D45, D60 and at M3 (W13), M4, M5 and M6 (W26): a hematological profile (CBC, reticulocytes) is prepared, to monitor the hematological tolerance of the treatment.
The main objective of the three physician visits at M1 (W4), M3 (W13) and M6 (W26) is to evaluate treatment compliance and tolerance during the study.
Furthermore, blood tests are important in order to control the hematological tolerance of the treatment.
The follow-up visits took place 13 days (W2/D15), 27 days (W4/M1) and 108 days (W13/M3) after initiation of treatment.

CC(=O)Oc1ccccc1C(=O)O [aspirin]
efficacy of systemic antithrombotic treatment in CRVO patients (CRVO patients): ineffective, even harmful

NC(=O)NO [hydroxycarbamide]
probability of 10-year survival ([1]; 17-year follow-up, 131 HC patients, 65% for non-HC patients, p=0.001): 86%
lower death rate than patients who did not receive HC ([1]; 17.5-year follow-up of the MSH study, sickle-cell disease): 40%
activity against mouse L1210 leukemia (mouse L1210 leukemia): active
improved visual acuity (change in ETDRS letters) ([2]; D-1 to W13): +11 ETDRS letters
reduction in average central retinal thickness ([2]; D-1 to W13): 35 μm
hemorrhages at examination of the fundus of the left eye ([2]; W2 visit): reduction in hemorrhages
visual acuity (ETDRS scale) of the left eye ([2]; W2 visit, 20 mg/kg/day Siklos orally, one patient, 71 letters at D-1): 73 letters
average macular volume (OCT) ([2]; W2 visit): 5.6 mm^3
average central retinal thickness (OCT) ([2]; W2 visit): 300 μm
circulation times in the inferior hemi-vein (fluorescein angiography) ([2]; W4 visit): improvement in circulation times
hemorrhages at examination of the fundus of the left eye ([2]; W4 visit): reduction in hemorrhages
nonperfusion zone by retinal fluorescein angiography ([2]; W4 visit): absence of a nonperfusion zone
visual acuity (ETDRS scale) of the left eye ([2]; W4 visit, 20 mg/kg/day orally, one patient, 71 letters at D-1): 77 letters
area of the central avascular zone (CAZ) by OCT-angiography ([2]; W4 visit): 0.10 mm^2
average macular volume (OCT) ([2]; W4 visit): 5.48 mm^3
average central retinal thickness (OCT) ([2]; W4 visit): 293 μm
circulation times in the inferior hemi-vein (fluorescein angiography) ([2]; W13 visit): normalization of circulation times
hemorrhages at examination of the fundus of the left eye ([2]; W13 visit): disappearance of hemorrhages
nonperfusion zone by retinal fluorescein angiography ([2]; W13 visit): absence of a nonperfusion zone
area of the central avascular zone (CAZ) by OCT-angiography ([2]; W13 visit): 0.09 mm^2
average macular volume (OCT) ([2]; W13 visit): 5.23 mm^3
average central retinal thickness (OCT) ([2]; W13 visit): 281 μm
left visual acuity (ETDRS) ([2]; W13 visit, dose reduced to 15 mg/kg/d, one patient, 71 letters at D-1): 82 letters
change in the area of the CAZ ([2]; during treatment): no significant change
clinical tolerance of the treatment [3]: perfect
thrombocytopenia (platelet count) ([3]; 20 mg/kg/day): 60,000 /mm^3
toxicity of oral treatment at the doses used ([3]; po): minimally toxic

CC(=O)CC(c1ccccc1)c1c(O)c2ccccc2oc1=O (centres unmarked) [warfarin]
efficacy of systemic antithrombotic treatment in CRVO patients (CRVO patients): ineffective, even harmful
